B1: PhoQ; a variant is named by its letters at X, in order, P23837 (parent)
chain: MKKLLRLFFPLSLRVRFLLATAAVVLVLSLAYGMVALIGYSVSFDKTTFRLLRGESNLFYTLAKWENNKLHVELPENIDKQSPTMTLIYDENGQLLWAQRDVPWLMKMIQPDWLKSNGFHEIEADVNDTSLLLSGDHSIQQQLQEVREDDDDAEMTHSVAVNVYPATSRMPKLTIVVVDTIPVELKSSYMVWSWFIYVLSANLLLVIPLLWVAAWWSLRPIEALAKEVRELEEHNRELLNPATTRELTSLVRNLNRLLKSERERYDKYRTTLTDLTHSLKTPLXXLQXXLRSLRSEKMSVSDAEPVMLEQISRISQQIGYYLHRASMRGGTLLSRELHPVAPLLDNLTSALNKVYQRKGVNISLDISPEISFVGEQNDFVEVMGNVLDNACKYCLEFVEISARQTDEHLYIVVEDDGPGIPLSKREVIFDRGQRVDTLRPGQGVGLAVAREITEQYEGKIVAGESMLGGARMEVIFGRQHSAPKDE

Some of the results follow. Some results are limits rather than exact numbers.

The variants in this experiment derive from B1. The experiment can be described thus: enrichment ratio after two sorts for PhoP signalling (ratio (wild type AVST 3.29)); higher = more functional. The conditions noted are these: with PhoP (E. coli).
Consider GFQM, for which the enrichment ratio is ≤ 0.25.

For FQWT, the enrichment ratio is ≤ 0.25.

In the case of MQMN, the enrichment ratio was ≤ 0.25.

For the variant TLKY, the enrichment ratio was ≤ 0.25.

With WGHF, the enrichment ratio was ≤ 0.25.

Regarding HQIR, the enrichment ratio was ≤ 0.25.

In the case of HHNR, the enrichment ratio was ≤ 0.25.

Consider TRMS, for which the enrichment ratio was ≤ 0.25.

Take PETW: the enrichment ratio is ≤ 0.25.

In the case of FVMW, the enrichment ratio was ≤ 0.25.

As to HERS, the enrichment ratio was ≤ 0.25.

In the case of GNNV, the enrichment ratio was ≤ 0.25.

For the variant YMFM, the enrichment ratio was ≤ 0.25.

For CSEF, the enrichment ratio is ≤ 0.25.

Consider MDQP, for which the enrichment ratio is ≤ 0.25.

As for DNYY, the enrichment ratio was ≤ 0.25.

As for VPIH, the enrichment ratio is ≤ 0.25.

For WHCP, the enrichment ratio is ≤ 0.25.

CVMF: the enrichment ratio was ≤ 0.25.

For the variant GEAP, the enrichment ratio is ≤ 0.25.

With LILN, the enrichment ratio was ≤ 0.25.

Consider TMHH, for which the enrichment ratio amounted to 2.05.

On to IWVP, for which the enrichment ratio is ≤ 0.25.

Regarding HMPN, the enrichment ratio was ≤ 0.25.

For the variant AMYR, the enrichment ratio was ≤ 0.25.

As for IQVA, the enrichment ratio is ≤ 0.25.

Take NHHM: the enrichment ratio is ≤ 0.25.

Consider MKVS, for which the enrichment ratio was ≤ 0.25.

In the case of MGMY, the enrichment ratio was ≤ 0.25.

Turning to FPQP, the enrichment ratio was ≤ 0.25.

Turning to IFEG, the enrichment ratio is ≤ 0.25.

For the variant RGWG, the enrichment ratio is 3.27.

In the case of TAAD, the enrichment ratio is ≤ 0.25.

Regarding RVCG, the enrichment ratio was ≤ 0.25.

On to QHVM, for which the enrichment ratio is ≤ 0.25.

In the case of MCWH, the enrichment ratio came out at 2.69.

Take VTAF: the enrichment ratio was determined as 0.371.

Regarding LYGY, the enrichment ratio is ≤ 0.25.

In the case of HQKI, the enrichment ratio is ≤ 0.25.

For MALA, the enrichment ratio was determined as 3.7.

As for VVGS, the enrichment ratio was ≤ 0.25.

Turning to PNHP, the enrichment ratio is ≤ 0.25.

As to YVMG, the enrichment ratio was ≤ 0.25.

Consider LRSK, for which the enrichment ratio is ≤ 0.25.

Take RLCV: the enrichment ratio was ≤ 0.25.

HWRK: the enrichment ratio is ≤ 0.25.

For the variant WGHP, the enrichment ratio was ≤ 0.25.

Turning to KIHR, the enrichment ratio is ≤ 0.25.

Consider HWNS, for which the enrichment ratio was ≤ 0.25.

For VGDS, the enrichment ratio is ≤ 0.25.

Turning to YCDF, the enrichment ratio was ≤ 0.25.

Regarding SAQE, the enrichment ratio was ≤ 0.25.

For the variant VAKD, the enrichment ratio was ≤ 0.25.

In the case of MADN, the enrichment ratio is ≤ 0.25.

Turning to IYIW, the enrichment ratio was ≤ 0.25.

As for TDVA, the enrichment ratio was ≤ 0.25.

For the variant SYDP, the enrichment ratio is ≤ 0.25.

As for HEID, the enrichment ratio was ≤ 0.25.

Consider WQPH, for which the enrichment ratio was ≤ 0.25.

Turning to YQCQ, the enrichment ratio was ≤ 0.25.

Consider CTSI, for which the enrichment ratio stood at 19.6.

Consider AADS, for which the enrichment ratio is ≤ 0.25.

Consider VPHI, for which the enrichment ratio is ≤ 0.25.

With HNKN, the enrichment ratio was ≤ 0.25.

As for FANK, the enrichment ratio was ≤ 0.25.

For FIRA, the enrichment ratio amounted to 1.05.

As for LAQS, the enrichment ratio is ≤ 0.25.

As for SRGS, the enrichment ratio is ≤ 0.25.

On to QKSI, for which the enrichment ratio turned out to be 6.62.

For the variant WYVM, the enrichment ratio was ≤ 0.25.

Regarding IQEW, the enrichment ratio was ≤ 0.25.

Regarding NYMA, the enrichment ratio was ≤ 0.25.

On to LGGI, for which the enrichment ratio was ≤ 0.25.

In the case of KTVL, the enrichment ratio was ≤ 0.25.

For RQRV, the enrichment ratio was ≤ 0.25.

Take RNVA: the enrichment ratio is ≤ 0.25.

With QQLH, the enrichment ratio was ≤ 0.25.

Take WEMR: the enrichment ratio is ≤ 0.25.

On to EHKD, for which the enrichment ratio is ≤ 0.25.

In the case of SLRY, the enrichment ratio is ≤ 0.25.

QGGS: the enrichment ratio was 14.5.

Take TCKR: the enrichment ratio was ≤ 0.25.

For SYLK, the enrichment ratio was ≤ 0.25.

With HHLV, the enrichment ratio was ≤ 0.25.

Values taken from a collection of fitness landscapes (doi:10.1126/science.1257360).
